{"source": "patent US11197891B2", "about": "“Therapies with lanthionine C-like protein 2 ligands and cells prepared therewith” (Landos Biopharma, Inc., priority 2017, dated 2021)", "tested_on": "C. difficile", "test": "C. difficile culture in chopped meat media (anti-microbial properties)", "conditions": "exposure to BT-11"}
{"smiles": "O=C(c1cccc(-c2nc3ccccc3[nH]2)n1)N1CCN(C(=O)c2cccc(-c3nc4ccccc4[nH]3)n2)CC1", "note": "[BT-11, N,N-Bis(benzimidazolylpicolinoyl)piperazine]", "values": [{"measurement": "production of Toxin A or Toxin B", "result": "did not change production of Toxin A or Toxin B"}]}
